Test results reported in PubChem BioAssay AID1868 (National Center for Advancing Translational Sciences (NCATS), 2009).
Screen size: about 270,000 compounds; about 20 (0.007%) were called active. The inconclusive results got no clear call from the source; some entries with a clear call stand among them for comparison. The call rests on the fitted dose curve; in most records, active means well fitted inhibition curve with a large enough effect; inconclusive means small, poorly fitted or top-dose-only effect, or effect the other way; inactive means flat fitted curve, though single readings scatter. Potencies beside an inconclusive call are fits to weak or partial responses and may not hold up.

These compounds were tested against Galactokinase (Homo sapiens) (UniProt P51570) (assay: qHTS Assay for Inhibitors of Human Galactokinase (GALK)). Settings: Purified GALK, Kinase-Glo residual ATP luminescence; series mostly up to 57.5 µM.
UniProt P51570, sequence (P51570 whole entry, looked up): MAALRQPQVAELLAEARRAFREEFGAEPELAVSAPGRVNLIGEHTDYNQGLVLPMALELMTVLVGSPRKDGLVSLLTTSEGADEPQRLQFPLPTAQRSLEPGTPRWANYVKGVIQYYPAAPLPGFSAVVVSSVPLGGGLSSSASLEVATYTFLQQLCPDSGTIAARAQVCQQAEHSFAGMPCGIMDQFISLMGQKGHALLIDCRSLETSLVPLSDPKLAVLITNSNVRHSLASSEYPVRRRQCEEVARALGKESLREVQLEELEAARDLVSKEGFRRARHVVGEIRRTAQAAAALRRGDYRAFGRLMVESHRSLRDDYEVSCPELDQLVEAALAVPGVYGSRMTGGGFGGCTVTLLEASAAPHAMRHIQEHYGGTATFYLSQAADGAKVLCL
Procedure, shortened: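 Kinase-Glo Plus luminescence measured ATP left after a 1 h room-temperature reaction. The reaction used 5 nM GALK, 100 uM galactose and 35 uM ATP at pH 8.0 (20 mM HEPES, 5 mM MgCl2, 60 mM NaCl, 1 mM DTT, 0.01% BSA).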
Potency means the concentration at half of the fitted maximal effect; tags describe the fitted curve by direction and shape.

O=C1C=C(N2CCOCC2)c2ccccc2C1=O was tested. Which Potency did it give?
The Potency was active: 12.6 µM.

Which Potency does the source give for Cc1occc1C(=O)N/N=C/c1ccc(N(C)C)cc1 here?
Its Potency is inconclusive: 15.8 µM [rising, partial curve].

Which Potency does the source give for Cc1sc2nc(CN3CCN(c4ccc(O)cc4)CC3)[nH]c(=O)c2c1C here?
Its Potency is “inactive”.

Cc1ccc(S(=O)(=O)/N=C2/NC(=O)/C(=C\c3cc(Br)cc(Br)c3O)S2)cc1 was tested. Which Potency did it give?
The Potency was inconclusive: 31.6 µM [falling, single point].

For COCc1cc(CN2CCCC2)c(O)c2ncccc12, which Potency is on record?
Its Potency is inconclusive: 28.2 µM [falling, single point].

O=[N+]([O-])c1cc(Br)c(O)c(/C=N/Nc2nnnn2-c2cccc3ccccc23)c1 was tested. Which Potency did it give?
Its Potency is inconclusive: 35.5 µM [falling, single point].

With O=C(Nc1ccccc1C(=O)NC1CCCCC1)c1ccco1 as the compound, how does the Potency read?
Its Potency is “inactive”.

O=C(NC(=S)Nc1ccc(N2CCOCC2)cc1)c1ccco1 was tested. Which Potency did it give?
Its Potency is “inactive”.

With S=C1Cc2ccccc2N1 as the compound, how does the Potency read?
Its Potency is inconclusive: 28.2 µM [falling, single point].

With Cn1nc(-c2ccccn2)nc2c(=O)n(C)c(=O)nc1-2 as the compound, how does the Potency read?
Its Potency is active: 1 µM.

With NS(=O)(=O)c1ccc(NC(=O)COC(=O)c2ccc([N+](=O)[O-])s2)cc1 as the compound, how does the Potency read?
Its Potency is inconclusive: 25.1 µM [falling, single point].

Which Potency does the source give for COC1=C(N)C(=O)c2nc(-c3nc(C(=O)O)c(C)c(-c4ccc(OC)c(OC)c4O)c3N)ccc2C1=O here?
The Potency was active: 8.91 µM.

For Cc1ccc(F)c(NC(=O)/C(C#N)=C(\O)c2ccc(C(C)(C)C)cc2)c1, which Potency is on record?
The Potency was inconclusive: 35.5 µM [falling, single point].

Which Potency does the source give for CCN1CCN(CCNC(=O)c2ccc3nc(-c4cccc(C)c4)c(-c4cccc(C)c4)nc3c2)CC1 here?
The Potency was inconclusive: 35.5 µM [falling, single point].

With O=C1/C(=C\c2ccc(O)c(O)c2)C(c2ccccc2)=NN1c1ccccc1 as the compound, how does the Potency read?
The Potency was inconclusive: 17.8 µM [falling, partial curve].

O=c1[nH]c(Nc2ccccc2)cc2ccccc12 was tested. Which Potency did it give?
Its Potency is inconclusive: 39.8 µM [falling, single point].

Cc1ccc(C(=O)NC2(O)C(=O)c3ccccc3C2=O)cc1C was tested. Which Potency did it give?
Its Potency is inconclusive: 39.8 µM [falling, single point].

With Cc1ccc(-n2c(C)cc(C(=O)COC(=O)C3=NNC(=O)CC3)c2C)cc1 as the compound, how does the Potency read?
The Potency was “inactive”.

O=C(CSCc1ccccc1)N1CCN(S(=O)(=O)c2ccc(F)cc2)CC1 was tested. Which Potency did it give?
The Potency was inconclusive: 0.794 µM [falling, single point].

Which Potency does the source give for N#C/C(=C(/O)Cc1cccc2ccccc12)c1nc2ccccc2s1 here?
Its Potency is inconclusive: 39.8 µM [falling, single point].

With C[n+]1cccc2c(Br)ccc([O-])c21 as the compound, how does the Potency read?
The Potency was inconclusive: 28.2 µM [falling, single point].

Cc1c(C)c2ccc(OCC(=O)Nc3ccccn3)c(C)c2oc1=O was tested. Which Potency did it give?
The Potency was inconclusive: 15.8 µM [rising, partial curve].

How did the Potency turn out when CCOc1ccc2[nH]c(=O)c(C(c3nnnn3Cc3ccco3)N3CCN(C)CC3)cc2c1 (centres undefined) was run?
The Potency was active: 1 µM.

For O=C(NC1(O)C(=O)c2ccccc2C1=O)c1ccc(C(F)(F)F)cc1, which Potency is on record?
The Potency was inconclusive: 39.8 µM [falling, single point].

Which Potency does the source give for O=C(N/N=C/c1ccc2c(c1)OCO2)C1COc2ccccc2O1 (centres undefined) here?
The Potency was “inactive”.

COc1ccccc1C(=O)Nc1nc2ccccc2[nH]1 was tested. Which Potency did it give?
Its Potency is inconclusive: 8.91 µM [rising, partial curve].

With Cc1c(C(=O)N2CCCC2)sc(NC(=O)c2ccc(Cl)cc2)c1C#N as the compound, how does the Potency read?
Its Potency is inconclusive: 28.2 µM [falling, single point].

With C[n+]1cccc2cccc([O-])c21 as the compound, how does the Potency read?
The Potency was inconclusive: 31.6 µM [falling, single point].

Which Potency does the source give for C=CC#CC1(O)CC(C)[N+](C)(C)CC1C (centres undefined) here?
Its Potency is “inactive”.

Which Potency does the source give for Cn1c2ccccc2c(=O)n2c(=O)c3ccccc3cc12 here?
Its Potency is inconclusive: 31.6 µM [falling, single point].

For CCOC(=O)C1CCN(c2nc(N)c3c(N)nc(SCC(=O)O)cc3c2C#N)CC1, which Potency is on record?
Its Potency is inconclusive: 35.5 µM [falling, single point].

With Cc1ccccc1NC1=C/C(=N\S(=O)(=O)c2ccc(C(=O)O)cc2)c2ccccc2C1=O as the compound, how does the Potency read?
The Potency was inconclusive: 14.1 µM [falling, partial curve].

For COc1ccc(-c2csc(NC(=O)c3ccccc3NS(=O)(=O)c3ccc(F)c(F)c3)n2)cc1, which Potency is on record?
Its Potency is inconclusive: 39.8 µM [falling, single point].

How did the Potency turn out when NS(=O)(=O)c1ccc(NC(=S)NNC(=O)c2ccc(Br)o2)cc1 was run?
The Potency was inconclusive: 28.2 µM [falling, partial curve].

For COc1ccc(C2Nc3cccc4cccc(c34)N2)cc1Br, which Potency is on record?
Its Potency is “inactive”.

For Cc1cccc(/C=N/N(CCO)C2=NS(=O)(=O)c3ccccc32)c1, which Potency is on record?
The Potency was “inactive”.

Which Potency does the source give for O=C(CN1CCOCC1)Nc1ncc(Cc2ccccc2Cl)s1 here?
The Potency was “inactive”.

Cn1c([N+](=O)[O-])cnc1COC(N)=O was tested. Which Potency did it give?
The Potency was “inactive”.

O=C(O)c1cccc(S(=O)(=O)N2CCC(n3nnc4cc(C(F)(F)F)ccc43)CC2)c1 was tested. Which Potency did it give?
The Potency was inconclusive: 35.5 µM [falling, single point].

Which Potency does the source give for CCOc1cc(/C=C2\C(=O)ON=C2c2ccccc2)cc(Br)c1O here?
Its Potency is inconclusive: 25.1 µM [falling, single point].

For Cc1oc(-c2cccs2)nc1CS(=O)CC(=O)NC1CCCCCC1 (centres undefined), which Potency is on record?
The Potency was “inactive”.

Which Potency does the source give for CCOc1ccc(OCC(=O)Nc2nccs2)cc1 here?
Its Potency is inconclusive: 14.1 µM [rising, partial curve].

For CC1=C(C(N)=O)C(c2cccs2)n2nc(-c3cccc(Cl)c3)nc2N1 (centres undefined), which Potency is on record?
The Potency was inconclusive: 17.8 µM [falling, partial curve].

With Cc1noc(C)c1C(=O)N(C)Cc1ccccc1 as the compound, how does the Potency read?
Its Potency is “inactive”.

N#C/C(=C(/O)COc1ccc(Cl)cc1)c1nc2ccccc2s1 was tested. Which Potency did it give?
Its Potency is inconclusive: 28.2 µM [falling, single point].

N#Cc1c(N)sc(=S)c2c1CCN(Cc1ccccc1)C2 was tested. Which Potency did it give?
The Potency was inconclusive: 7.94 µM [falling, partial curve].

Which Potency does the source give for Cc1ccc(NC(=O)COC(=O)/C=C/c2ccco2)cc1S(=O)(=O)N(C)C here?
Its Potency is “inactive”.

O=C1Nc2ccc([N+](=O)[O-])cc2C1=Nc1cccc(CO)c1 was tested. Which Potency did it give?
The Potency was inconclusive: 39.8 µM [falling, single point].

With COc1cc(/C=C2/C(=N)N3C(=NC2=O)SN=C3S(=O)(=O)C(C)C)ccc1OS(=O)(=O)c1ccccc1 as the compound, how does the Potency read?
The Potency was inconclusive: 39.8 µM [falling, single point].

For Cc1cc2cc(C=C(C#N)C#N)c(Cl)nc2cc1C, which Potency is on record?
Its Potency is “inactive”.

How did the Potency turn out when O=C(NCCCN1CCOCC1)c1ccc(CS(=O)(=O)c2cccc(C(F)(F)F)c2)o1 was run?
Its Potency is “inactive”.

How did the Potency turn out when O=C(Cc1cccc2ccccc12)N/N=C/C=C/c1cccc([N+](=O)[O-])c1 was run?
The Potency was “inactive”.

N#C/C(=C(/O)c1cc2ccccc2o1)c1nc2ccccc2s1 was tested. Which Potency did it give?
Its Potency is inconclusive: 39.8 µM [falling, single point].

With O=S(=O)(NCc1cccs1)c1ccc(Br)s1 as the compound, how does the Potency read?
The Potency was inconclusive: 31.6 µM [falling, single point].

With CCc1ccc(S(=O)(=O)/N=C2\C=C(Nc3ccc(C(=O)O)cc3)C(=O)c3ccccc32)cc1 as the compound, how does the Potency read?
The Potency was inconclusive: 31.6 µM [falling, single point].

With COc1cccc(C2=NOC(C(=O)Nc3cc(C)nn3-c3ccccc3)C2)c1OC (centres undefined) as the compound, how does the Potency read?
Its Potency is “inactive”.

With Cc1cc(=O)[nH]c(N/N=C/c2ccccc2C(F)(F)F)n1 as the compound, how does the Potency read?
Its Potency is “inactive”.

With O=c1c(C(c2ccccc2)c2c(O)sc3ccccc3c2=O)c(O)sc2ccccc12 as the compound, how does the Potency read?
The Potency was inconclusive: 28.2 µM [falling, single point].

How did the Potency turn out when CCOC(=O)CSC1=NC(=O)/C(=C/c2ccc(OC)cc2)S1 was run?
The Potency was “inactive”.

How did the Potency turn out when COc1cc(/C=C2\C(=N)N3N=C(S(=O)(=O)CC(C)C)SC3=NC2=O)ccc1OC(=O)c1ccco1 was run?
The Potency was inconclusive: 35.5 µM [falling, single point].

How did the Potency turn out when O=C1OC(C(=O)O)Cc2ccccc21 (centres undefined) was run?
Its Potency is inconclusive: 35.5 µM [falling, single point].

With COC(=O)c1cc(C)nc2c1C(=O)C(=O)C=C2N1CCOCC1 as the compound, how does the Potency read?
Its Potency is active: 7.08 µM.

N#Cc1c(N2CCCCC2)nc(N)c2c(N)nc(SCC(=O)O)cc12 was tested. Which Potency did it give?
The Potency was inconclusive: 31.6 µM [falling, single point].

Which Potency does the source give for Cc1ccc(C(=O)N/C(=C\c2ccc(Cl)cc2)C(=O)NCCN2CCOCC2)cc1 here?
Its Potency is inconclusive: 7.08 µM [falling, single point].

Which Potency does the source give for CCn1ccnc1CN(C)Cc1cn(C)nc1-c1ccccc1F here?
Its Potency is “inactive”.

Cc1[nH][nH]c(=O)c1C(c1ccc(-c2cccc(Cl)c2)o1)c1c(C)[nH][nH]c1=O was tested. Which Potency did it give?
Its Potency is inconclusive: 22.4 µM [falling, single point].

Which Potency does the source give for N=C1/C(=C/c2cccs2)C(=O)N=C2SN=C(SCc3ccccc3)N12 here?
The Potency was inconclusive: 35.5 µM [falling, single point].

For c1cncc(-c2nc(N3CCOCC3)c3ccccc3n2)c1, which Potency is on record?
Its Potency is “inactive”.

Cc1snc(S(=O)(=O)/C(C#N)=N/Nc2ccc(C(F)(F)F)cc2)c1C#N was tested. Which Potency did it give?
The Potency was inconclusive: 25.1 µM [falling, single point].

How did the Potency turn out when COC(=O)c1ccc(CSc2ccc3nnc(-c4ccccn4)n3n2)o1 was run?
The Potency was inconclusive: 39.8 µM [falling, single point].

With Cc1nc2cc(-c3ccccc3)sc2c(=O)n1N as the compound, how does the Potency read?
Its Potency is inconclusive: 10 µM [rising, partial curve].

For Cc1cc(C(=O)CSc2nnc(-c3cccs3)o2)c(C)n1-c1ccccc1, which Potency is on record?
Its Potency is “inactive”.

For CCOC(=O)CSc1nnc(NCC(=O)OC)c(=O)[nH]1, which Potency is on record?
Its Potency is “inactive”.

COc1ccc(N/N=C(/C#N)S(=O)(=O)c2nsc(C)c2C#N)cc1 was tested. Which Potency did it give?
Its Potency is inconclusive: 31.6 µM [falling, single point].
